Experimental findings from the antibiotic and cytotoxicity screens of Wong et al. (2023) are described below.

The other results are listed elsewhere or left out.

The test system of the experiment is HepG2. In words: cytotoxicity call (relative viability < 0.9). The conditions noted are these: 10 µM.
As for `CCCOC(=S)N[C@H]1OC[C@@H](O)[C@@H](O)[C@@H]1O`, the cytotoxicity call is “inactive”.
As to `C[C@@H]1CN([C@@H](C)CO)C(=O)CCCn2nncc2CO[C@H]1CN(C)C(=O)Nc1ccc2c(c1)OCO2`, the cytotoxicity call was “inactive”.
As for `CS(=O)(=O)N1CCC2(CC1)OCCO2`, the cytotoxicity call was “inactive”.
The same measure for `CN1C(=S)N[C@@H]2CS(=O)(=O)C[C@@H]21`: “inactive”.
The same measure for `COc1ccc(NC(=O)N(C)C[C@H]2OCCCC[C@@H](C)Oc3ccc(NC(=O)Cc4ccccc4)cc3C(=O)N([C@@H](C)CO)C[C@H]2C)cc1`: “inactive”.
The same measure for `C[C@H](CO)N1C[C@H](C)[C@@H](CN(C)S(=O)(=O)c2ccccc2)OCCCC[C@H](C)Oc2ccc(NS(=O)(=O)c3cn(C)cn3)cc2C1=O`: “inactive”; for `Cc1ccc(S(=O)(=O)Nc2ccc3c(c2)C(=O)N([C@H](C)CO)C[C@@H](C)[C@@H](CN(C)S(=O)(=O)c2cn(C)cn2)O3)cc1`: “inactive”.
`C[C@@H]1CN([C@H](C)CO)C(=O)c2cc(NC(=O)C3CC3)ccc2O[C@H]1CN(C)S(=O)(=O)c1cn(C)cn1`: the cytotoxicity call was “inactive”.
On to `C[C@@H]1CN([C@H](C)CO)C(=O)c2cc(NC(=O)Nc3ccc(F)cc3)ccc2O[C@@H](C)CCCCO[C@H]1CN(C)C(=O)C1CCCCC1`, for which the cytotoxicity call was “inactive”.
`COc1ccc(S(=O)(=O)Nc2ccc3c(c2)C(=O)N([C@H](C)CO)C[C@H](C)[C@H](CN(C)Cc2ccc(C(=O)Nc4ccccc4N)cc2)OCCCC[C@@H](C)O3)cc1`: the cytotoxicity call is “inactive”.
The same measure for `O=C(C[C@H]1CC[C@H]2[C@@H](COC[C@H](O)CN2C(=O)c2cnccn2)O1)NCc1ccc(Oc2ccccc2)cc1`: “inactive”.
As for `Cc1noc(C)c1S(=O)(=O)N(C)C[C@H]1Oc2ccc(NC(=O)Cc3ccccc3)cc2CC(=O)N([C@H](C)CO)C[C@H]1C`, the cytotoxicity call is “inactive”.
The same measure for `C[C@H]1CN([C@@H](C)CO)C(=O)CCCn2nncc2CO[C@H]1CN(C)C(=O)Nc1ccccc1C(F)(F)F`: “active”; for `O=C(C[C@@H]1CC[C@@H]2[C@H](COC[C@H](O)CN2S(=O)(=O)c2ccc(Cl)cc2)O1)N[C@H]1CCN(Cc2ccccc2)C1`: “inactive”.
The same measure for `CCCCCCO[C@@H](C)c1cccc(-c2csc(NC(=O)c3cc(Cl)c(/C=C(\C)C(=O)O)c(Cl)c3)n2)c1OC`: “inactive”.
The same measure for `C=CCN(C(=O)[C@H]1N(CCOCCO)C(=O)[C@H]2[C@H](C(=O)O)[C@@H]3C=C[C@@]21O3)C(C)(C)C`: “inactive”; for `C[C@H](C(=O)O)N1C(=O)CCC1=O`: “inactive”.
For the molecule `O=C1CCc2cc(OCCCCc3nnnn3C3CCCCC3)ccc2N1`, the cytotoxicity call was “inactive”.
For `C[C@@H]1CCCCO[C@@H](CN(C)Cc2ccc(Cl)c(Cl)c2)[C@@H](C)CN([C@@H](C)CO)C(=O)c2cc(NS(=O)(=O)c3ccccc3)ccc2O1`, the cytotoxicity call was “inactive”.
The same measure for `C[C@@H]1CN([C@H](C)CO)C(=O)c2cc(NS(=O)(=O)c3ccccc3)ccc2O[C@H]1CN(C)Cc1ccc(Oc2ccccc2)cc1`: “inactive”.
Turning to `C[C@@H]1CCCCO[C@@H](CN(C)C(=O)Cc2ccccc2)[C@H](C)CN([C@H](C)CO)C(=O)c2cc(NC(=O)CCC(F)(F)F)ccc2O1`, the cytotoxicity call was “inactive”.
As to `CNC[C@@H]1OCCCC[C@H](C)Oc2ccc(NS(=O)(=O)c3cn(C)cn3)cc2C(=O)N([C@@H](C)CO)C[C@H]1C`, the cytotoxicity call was “inactive”.
The same measure for `Cc1sc(Nc2ccccc2)nc1-c1ccc(Cl)cc1`: “active”; for `C[C@@H]1CN([C@H](C)CO)C(=O)c2cccc(NC(=O)Nc3ccc(C(F)(F)F)cc3)c2O[C@H]1CN(C)S(=O)(=O)c1ccc(Cl)cc1`: “inactive”; for `C=CCOC(=O)[C@@H]1[C@H]2C(=O)O[C@H](c3ccccc3)[C@H](c3ccccc3)N2[C@H](c2ccc(OCCOC(=O)[C@@H]3C[C@@H]4C(=O)N[C@@H](CCCCNC(C)=O)C(=O)N4[C@@H]3c3ccc(O)cc3)cc2)[C@@]12C(=O)Nc1ccccc12`: “inactive”.
The same measure for `Cn1cc(C(=O)NCc2cn3c(n2)CNCC3)cn1`: “inactive”; for `Cn1cnc(S(=O)(=O)N[C@@H]2CC[C@@H](CC(=O)NCC3CC3)O[C@@H]2CO)c1`: “inactive”.
As to `CCc1nnc(SCC(=O)O)n1N`, the cytotoxicity call is “inactive”.
The same measure for `COc1ccc(NC(=O)Nc2ccc3c(c2)C(=O)N([C@@H](C)CO)C[C@@H](C)[C@H](CN(C)CC2CCCCC2)O3)cc1`: “inactive”.
The same measure for `C[C@@H]1CN([C@@H](C)CO)C(=O)Cc2cc(NC(=O)Cn3cnnn3)ccc2O[C@@H]1CN(C)CC1CC1`: “inactive”; for `Cc1ccc(S(=O)(=O)N(C)C[C@H]2Oc3ccc(NC(=O)CCN4CCOCC4)cc3C(=O)N([C@H](C)CO)C[C@@H]2C)cc1`: “inactive”.
